In the supplement of paper PMC4466236:
In all, about 33,000 sequences were measured (“E-score (dimensionless, -0.5 to 0.5)”: median about -0.058, highest 2% from about 0.35 on). This is one part of the list.

The sequences below were run on MvaT (assay: PBM 8-mer E-score (mean of HK and ME arrays) (E-score (dimensionless, -0.5 to 0.5)); higher = stronger relative binding preference; most listed sequences are background and not binding sites).
How it was run: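 Full-length P. aeruginosa MvaT, with glutathione S-transferase fused to its N-terminus (cloned into pTH6838 by isothermal assembly), was tested by protein binding microarray using a previously described protocol. Two universal double-stranded 60-mer arrays (ME and HK) were used, each with a constant 25-mer primer region and a variable 35-mer region covering all 8-mers. The rank-based 8-mer E-score (-0.5 to 0.5) is the mean of the two arrays, parsed with a custom Python script.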

| Sequence | PBM 8-mer E-score |
| --- | --- |
| ACCTTACA | 0.0995 |
| CCCTTGTC | -0.221 |
| GGAGATAA | 0.0601 |
| ATAGTGCC | -0.0299 |
| AGGAACCG | -0.283 |
| CACGCGAC | -0.198 |
| CGCGCATA | 0.113 |
| AGGACGAT | -0.107 |
| GGACGGTA | -0.175 |
| CCTCTGGA | -0.172 |
| ACATAAGG | 0.00773 |
| GCCTGTCA | -0.21 |
| ATCGGAAT | 0.0812 |
| AGTTGAAG | 0.243 |
| CCGCAGCC | -0.345 |
| CACATAAC | 0.209 |
| ACACCCTA | 0.0401 |
| AAGCAACC | -0.0129 |
| AACTGACG | 0.0522 |
| CCGTTCGC | -0.222 |
| ATCCGACG | -0.0239 |
| AGAGCGCT | -0.092 |
| GGTTACTA | 0.176 |
| AACACATC | 0.0583 |
| ACGCTAAT | 0.174 |

| Sequence | PBM 8-mer E-score |
| --- | --- |
| CAGGACGG | -0.141 |
| ATCTCAAT | 0.0631 |
| ACAGTGCT | -0.105 |
| ACGAACTC | -0.0732 |
| ATATGTCG | 0.22 |
| ATTTAAAC | 0.398 |
| AGTCACTG | -0.0346 |
| CTCCTTAA | -0.0285 |
| GGCTGGAC | -0.26 |
| TAACCTTA | 0.0355 |
| AATATACA | 0.413 |
| GGTGGTGA | -0.106 |
| CGTGTTCA | -0.0519 |
| TTGGCAAA | 0.0635 |
| ACCATGAT | -0.0366 |
| CTAGTCAA | -0.00516 |
| GGGTAGAC | -0.152 |
| CGGCCAAG | -0.206 |
| ATCTCACC | 0.0166 |
| ACCTTGAC | -0.148 |
| ACATCCTC | -0.0219 |
| CTCTTGCA | -0.0689 |
| TAATGGCA | 0.181 |
| AGTCTCCA | -0.108 |
| CTCCGCGA | -0.173 |

| Sequence | PBM 8-mer E-score |
| --- | --- |
| CGCTCGCC | -0.25 |
| CCGAATCC | -0.188 |
| CCGATGAG | -0.235 |
| CCATTGCC | -0.0399 |
| GCTCAAGA | -0.189 |
| CTGTATTC | 0.0463 |
| GGTGTGTA | 0.0501 |
| CTATCCAC | -0.0769 |
| AGCCCTAA | -0.24 |
| ACACACGA | -0.0249 |
| CGACTATA | 0.241 |
| ATACTGCA | 0.213 |
| CGCCACTC | -0.172 |
| CAGATCAG | -0.155 |
| ACTGGATC | -0.231 |
| CGTTCCTA | -0.143 |
| AAATGAAT | 0.286 |
| AGATAATA | 0.366 |
| AAAGCGCC | -0.135 |
| GAGGTGCA | -0.168 |
| AGAGAAAT | 0.134 |
| AAACGTGG | -0.101 |
| CACTCACC | -0.00829 |
| AAGGCTCT | -0.24 |
| AGTCCCCC | -0.306 |

| Sequence | PBM 8-mer E-score |
| --- | --- |
| AGAAGAAT | 0.0662 |
| ATGTCCCC | -0.219 |
| CCTTTGGA | -0.14 |
| ATTACTTC | 0.348 |
| CTTATATC | 0.184 |
| AGGATAGA | -0.139 |
| CCTAATCA | -0.0355 |
| AGATCCCC | -0.279 |
| CTCTTAAA | 0.125 |
| AGTCTCGG | -0.109 |
| ATGGCATA | 0.0609 |
| AGCCCATG | -0.157 |
| GGATCCCC | -0.289 |
| CATCTGCA | -0.119 |
| CTTGGCCC | -0.249 |
| GTGCTACA | -0.00216 |
| GTTGCCCA | -0.152 |
| AGCTTGTG | -0.121 |
| ACGTGGAA | -0.126 |
| AGGGAGAC | -0.191 |
| CCTCTGGC | -0.359 |
| TTCGAAAA | 0.164 |
| TAGCAGAA | 0.0296 |
| ATTTAGCA | 0.237 |
| AGGATGAG | -0.0489 |

| Sequence | PBM 8-mer E-score |
| --- | --- |
| CGCGAATC | -0.113 |
| ACCAAGAA | -0.0662 |
| ATACTCCC | 0.157 |
| AAGTAGTA | 0.289 |
| AACACTGA | 0.164 |
| CTATTGCC | 0.0325 |
| GCAGAGCC | -0.388 |
| CGGCGTGC | -0.257 |
| GGGCTAAC | -0.0538 |
| AACTCATC | -0.0983 |
| CCGAAACC | -0.165 |
| ACTCCATG | -0.0328 |
| CACGCTAG | -0.0779 |
| AACGGAAG | -0.0172 |
| CCGTTCAA | 0.0774 |
| GTAATCCA | 0.0646 |
| AGAATCAA | 0.0548 |
| AGATTTGG | -0.0242 |
| CCGACTCG | -0.155 |
| TACATCAA | 0.116 |
| CACAACCA | 0.0819 |
| AATTCTGC | 0.148 |
| GAGTGGGC | -0.211 |
| AAGCGGCG | -0.201 |
| CCATCAAC | -0.145 |

| Sequence | PBM 8-mer E-score |
| --- | --- |
| AACAGAGA | -0.0527 |
| ATGGGGCC | -0.287 |
| CTATGTTC | -0.172 |
| AATAGTAT | 0.308 |
| CAATGAAG | 0.0843 |
| AACGGTTA | 0.0448 |
| AACTTATT | 0.398 |
| ACACTAGC | 0.00371 |
| GCCAGCGA | -0.185 |
| AGACCACT | -0.108 |
| AATAAGTC | 0.298 |
| AAATACAA | 0.33 |
| CGGGGGTC | -0.393 |
| AACTGTAG | 0.125 |
| AAGTATCC | 0.0849 |
| CGGACACG | -0.242 |
| CCGGCTCG | -0.246 |
| CGACGAGA | -0.132 |
| GGGAACCC | -0.303 |
| CATGAAAA | 0.0813 |
| CACTTCGC | -0.174 |
| GCCTGTAC | -0.0378 |
| CCACTAGG | -0.207 |
| AATACCGC | 0.146 |
| CTTCATAA | 0.172 |

| Sequence | PBM 8-mer E-score |
| --- | --- |
| CGACAACA | 0.0714 |
| ATTTTCCA | 0.157 |
| GGTCGCAC | -0.201 |
| ACTTCCAT | 0.123 |
| GGGTCCTA | -0.211 |
| CATTGACC | -0.0108 |
| GAGCTACC | -0.307 |
| GCTGTGCC | -0.235 |
| CCAATAAG | 0.183 |
| ACGCCTTA | 0.0578 |
| GTATCCGA | 0.0204 |
| CCACGGAA | -0.115 |
| GAAGTCGC | -0.22 |
| TGCCCGAA | -0.139 |
| GAGAAGCC | -0.351 |
| CGTGAACC | -0.142 |
| AGAGGATG | -0.0274 |
| AACACAGG | 0.0764 |
| ACCTCACG | -0.223 |
| CTAATGCC | -0.032 |
| GGTATCGA | -0.0823 |
| GCCTCTTA | -0.0973 |
